Experimental data published in PubChem BioAssay AID485281 (National Center for Advancing Translational Sciences (NCATS), 2010).
Out of some 350,000 compounds screened, about 260 (0.074%) were called active. Inconclusive results, whose numbers are uncertain, are shown with a selection of clear calls. Calls follow the shape of the dose curve; as a rule, active = well fitted inhibition curve with a large enough effect; inconclusive = small, poorly fitted or top-dose-only effect; inactive = no such curve, though single readings can be large or run the other way. Potencies of inconclusive entries are doubtful fits and often do not repeat.

What follows are compounds tested against Ferritin light chain (Equus caballus) (UniProt P02791) (assay: qHTS Assay for Identification of Novel General Anesthetics). Conditions: apoferritin/1-aminoanthracene competitive binding, fluorescence; series mostly up to 77.5 µM.
Outline: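 Probe: 1-aminoanthracene (50% saturated, PBS). Protein: horse-spleen apoferritin, 10 uM. Incubation: 10 min, room temperature. Detection: 380 nm excitation, 535 nm emission. Analysis: normalized response, four-parameter Hill.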
Also: nearly all actives have a fitted effect of over 20% in size.
Potency is read from the fitted curve at half-maximal effect; tags tell the direction and shape of the fitted curve.

Sequence of UniProt P02791 (P02791 whole entry, looked up): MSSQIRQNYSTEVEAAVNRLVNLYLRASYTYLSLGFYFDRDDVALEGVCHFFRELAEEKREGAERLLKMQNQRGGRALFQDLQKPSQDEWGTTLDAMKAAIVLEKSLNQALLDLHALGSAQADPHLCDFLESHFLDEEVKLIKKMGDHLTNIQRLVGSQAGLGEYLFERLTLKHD

Compound	Potency
COc1cc(CN2CCN(Cc3ccc([N+](=O)[O-])cc3)CC2)c([N+](=O)[O-])cc1OC	inconclusive: 31.6 µM [inhibitor, partial curve]
COc1cc(C(=O)N/N=C/c2sc(=O)n(-c3ccccc3)c2Cl)cc(OC)c1OC	inconclusive: 28.2 µM [inhibitor, single point]
CC(C)CC(NS(=O)(=O)OCC(Cl)(Cl)Cl)c1ccccc1 (stereo not given)	inconclusive: 39.8 µM [inhibitor, single point]
Cc1ccc(NC(=O)c2cc3ccccn3n2)cc1F	inactive
CCCS(=O)(=O)N1CCN=C1SCc1ccc(C)cc1	inconclusive: 31.6 µM [inhibitor, single point]
CC(C)C(=O)Nc1cccc(NC(=O)c2cc3ccccc3o2)c1	inactive
O=C(COC(=O)COc1ccc(Cl)cc1Cl)Nc1cccnc1Cl	inconclusive: 28.2 µM [inhibitor, single point]
O=C(Nc1cccc(Cl)c1)N1CCc2ccccc2C1	inconclusive: 8.91 µM [inhibitor, partial curve]
CCOc1ccccc1CNc1ccc(O)cc1	inconclusive: 14.1 µM [inhibitor, partial curve]
CN(C)C(=O)c1cc2cc(Br)ccc2s1	inconclusive: 39.8 µM [inhibitor, single point]
Cc1ccc(C)c(OCc2nnc(N)s2)c1	inconclusive: 31.6 µM [inhibitor, partial curve]
CCOC(=O)CSc1nc(N)c(C(=O)Nc2ccc(N(C)C)cc2)s1	inconclusive: 31.6 µM [inhibitor, partial curve]
Cc1ccc(C(=O)c2c3ccc(N)cc3nn2CCC(N)=O)cc1	inconclusive: 44.7 µM [inhibitor, single point]
O=C(Nc1ccc(Oc2ccc3ccccc3c2)cc1)c1ccco1	inconclusive: 3.98 µM [inhibitor, full curve, poor fit]
O=C(COC(=O)c1cnccn1)c1ccc(Br)cc1	inconclusive: 39.8 µM [inhibitor, single point]
Cc1ccc(C)n1-c1nnc(N2CCCC(C(=O)Nc3ccccc3Br)C2)s1 (stereo not given)	inconclusive: 12.6 µM [inhibitor, partial curve]
O=C(c1ccoc1)N1CCCC(CO)(CCCc2ccccc2)C1 (stereo not given)	inactive
CN(C)C(=S)SC(=S)N(C)C	inactive
c1ccc(-n2cnc3ccccc32)cc1	inactive
COc1ccc(C(=O)OCC(=O)c2ccccc2)cc1S(=O)(=O)N1CCOCC1	inconclusive: 31.6 µM [inhibitor, partial curve]
NCC(c1ccccc1)c1c[nH]c2ccccc12 (stereo not given)	inactive
CCOc1ccccc1NC(=O)CSc1nc2nc(-c3cccs3)cc(C(F)(F)F)c2c(=O)[nH]1	inconclusive: 50.1 µM [inhibitor, single point]
OCCC#Cc1ccc(CN2CCN(Cc3ccsc3)C(CCO)C2)cc1 (stereo not given)	inconclusive: 35.5 µM [inhibitor, single point]

Compound	Potency
CN1C(=O)/C(=C/c2ccccc2Cl)Sc2ccc(C(=O)NCc3cccnc3)cc21	inconclusive: 15.8 µM [inhibitor, partial curve]
O=C(Nc1nc2ccc(F)cc2s1)c1nc(S(=O)(=O)Cc2ccccc2F)ncc1Cl	inconclusive: 17.8 µM [inhibitor, single point]
COc1ccc(C(=O)Nc2ccc3nc(SCC(=O)N(C)c4ccccc4)sc3c2)cc1	inactive
CCn1c(CSCc2c(Cl)cccc2Cl)n[nH]c1=S	inconclusive: 28.2 µM [inhibitor, single point]
CC1CCCN(CCCNC(=O)Cn2ncc3c([nH]c4ccccc43)c2=O)C1 (stereo not given)	inconclusive: 14.1 µM [inhibitor, partial curve]
CCc1ccc(C2CC(=O)N3CN(c4ccccc4)CSC3=C2C#N)cc1 (stereo not given)	inconclusive: 28.2 µM [inhibitor, single point]
c1cc(N2CCCC2)ccc1C(c1nnnn1C1CCCCC1)N1CCOCC1 (stereo not given)	inactive
Cc1cccc(NC(=O)CN(C)S(=O)(=O)c2ccc(-c3ccc(=O)[nH]n3)s2)c1C	inactive
CCCCSc1ccc(NC(=O)c2cccnc2)cc1	inconclusive: 14.1 µM [inhibitor, partial curve]
O=C(NCC1CCCO1)c1ccc(COc2ccccc2Br)cc1 (stereo not given)	inconclusive: 28.2 µM [inhibitor, single point]
O=C(Nc1ccc2c(c1)OCO2)Nc1ccc(Br)cn1	inactive
CCOC(=O)CN1C(=O)S/C(=C/c2ccco2)C1=O	inconclusive: 35.5 µM [inhibitor, partial curve]
CC(C)(C)C(=O)Nc1ccccc1C(=O)OCc1cc(=O)n2ccsc2n1	inactive
Cc1ccc(-n2c(SCC(=O)N3CCCc4ccccc43)nc3c([nH]c4ccccc43)c2=O)cc1	inconclusive: 11.2 µM [inhibitor, single point]
COc1ccc(NC(=O)CCC(=O)c2cccs2)cc1Cl	inactive
Cc1ccc(NC(=O)CCC(=O)N/N=C/c2cccs2)cc1C	inconclusive: 50.1 µM [inhibitor, single point]
C=Cc1c(C)c2cc3nc(cc4[nH]c(cc5nc(cc1[nH]2)C(C)=C5CCC(=O)O)c(CCC(=O)OC)c4C)[C@@]1(C)C3=CC=C(C(=O)OC)[C@H]1C(=O)OC (tested in a mixture with another compound)	inconclusive: 11.2 µM [inhibitor, single point]
Cc1ccc(/C=C(\C#N)C(=O)Nc2cccc(Br)c2)o1	inactive
CCN1CCN(C(c2ccccc2Cl)c2c(O)cc(C)n(CCOC)c2=O)CC1 (stereo not given)	inconclusive: 35.5 µM [inhibitor, partial curve]
CC(C)(C)NC(=O)NC(=O)COC(=O)COc1ccc(Cl)cc1Cl	inconclusive: 35.5 µM [inhibitor, partial curve]
C/C(=N\Nc1ccc(Cl)c(C(=O)O)c1)c1cccs1	inactive
CCOc1ccccc1-c1nnc2n1N=C(c1cc(OC)ccc1OC)CS2	inactive
